Several values for one entry are separate records, joined by “and”; a condition that tells them apart may be missing. Equal values may be shown once. Among all 150,000 compounds or so, about 6,500 (4.3%) were called active. Inconclusive means that the source gave no clear call. Such entries were picked first, then a sample of the others. Calls come from the whole dose curve; as a rule, active = well fitted inhibition curve with a large enough effect (not every such curve was filed as active); inconclusive = small, poorly fitted or top-dose-only effect, or another doubt; inactive = no such curve, though single readings can be large or run the other way. A potency beside an inconclusive call is a rough fit, not a confirmed value. Where a structure was tested more than once in an assay, its records may differ in their call.
The compounds below were run against 15-hydroxyprostaglandin dehydrogenase [NAD(+)] (Homo sapiens) (UniProt P15428) (assay: qHTS Assay for Inhibitors of HPGD (15-Hydroxyprostaglandin Dehydrogenase)). Settings: purified HPGD, NADH fluorescence kinetic, PGE2 substrate; activity change, negative = inhibition: hits give low values.
Chain of UniProt P15428 (P15428 whole entry, looked up): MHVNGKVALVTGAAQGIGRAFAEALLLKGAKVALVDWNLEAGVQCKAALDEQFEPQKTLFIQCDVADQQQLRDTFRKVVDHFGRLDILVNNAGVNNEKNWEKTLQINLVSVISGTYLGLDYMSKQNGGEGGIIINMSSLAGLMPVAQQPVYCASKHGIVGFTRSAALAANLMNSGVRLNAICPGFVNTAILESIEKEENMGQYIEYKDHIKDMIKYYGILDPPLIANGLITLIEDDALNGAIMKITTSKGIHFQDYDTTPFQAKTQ
Summary of the method: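 NADH formation kinetics: reaction with 30 uM PGE2 and 1 mM NAD+ (final), 20 nM enzyme, Tris-HCl pH 8 with Tween 20, after 15 min compound preincubation at room temperature. Fluorescence change, last versus first of five reads.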
% is set by controls: 0 for no effect and ±100 for the full control effect; potency is the fitted concentration of half-maximal effect; tags give direction and shape of the fitted curve.

| SMILES | activity change, negative = inhibition | Potency |
| --- | --- | --- |
| C[C@H]1OC[C@@H](C[N+](C)(C)C)O1 | inactive: -9.83% and inactive: 1.45% | – |
| C=C/C(=C/C(=O)C[C@H](C)C[C@@H](C)CC[C@H](O)[C@H](C)C(=O)C[C@@H](O)[C@H](C)[C@@H](C)OC(=O)C[C@@H](O)C1=C(C)C(=O)OC1=O)CC | – | active: 2.82 µM |
| COc1cc(C(c2c(C)[nH]n(-c3ccccc3)c2=O)c2c(C)[nH]n(-c3ccccc3)c2=O)cc(OC)c1OC | inactive: -7.68% | – |
| CC(Cl)Cl | inactive: -8.77% | – |
| COc1ccc(NC(=O)N2CC3(CCN(C(=O)Oc4ccccc4)CC3)C2)cc1 | – | inconclusive: 35.5 µM [inhibitor, single point] |
| CCOP(=O)(OCC)c1nc(-c2cccc3ccccc23)oc1N1CCOCC1 | – | inconclusive: 28.2 µM [inhibitor, partial curve] |
| c1cc(CN2CCC3(CCNCC3)CC2)ccn1 | – | inconclusive: 39.8 µM [inhibitor, single point] |
| C=CCBr | inactive: -3.94% | – |
| COC(=O)CSc1nc2sc3c(c2c(=O)n1C1CCCCC1)CCN(C)C3 | – | inconclusive: 28.2 µM [inhibitor, partial curve] |
| C[C@@]12CC[C@H](O)C[C@@H]1CC[C@H]1[C@@H]2C[C@@H](O)[C@]2(C)[C@@H](C3=CC(=O)OC3)CC[C@]12O | inactive: -5.9% | – |
| Cc1ccccc1C1=NCC(=O)N(CC(=O)N2CCCCC2)c2sc(C)c(C)c21 | inactive: -6.6% | – |
| CN(C)c1ccc(C(=O)c2ccc(N(C)C)cc2)cc1 | – | inconclusive: 28.2 µM [inhibitor, partial curve] |
| N#C/C(=C\c1ccc(O)c(O)c1)C(N)=S | – | active: 8.91 µM |
| CCCCn1c(O)c(C(CC)=Nc2cccc(C(=O)O)c2)c(=O)[nH]c1=O | – | inconclusive: 28.2 µM [inhibitor, partial curve] |
| C/C(CC(c1ccccc1)c1c(O)c2ccccc2oc1=O)=N\NC(N)=S (stereo unspecified) | – | inconclusive: 28.2 µM [inhibitor, partial curve] |
| COC1=C[C@H]2C3=C([C@H]2C1=O)[C@H](NC(C)=O)CCc1cc(OC)c(OC)c(OC)c13 | inactive: 0.561% | – |
| CCC12CN3CCN(CC(C3)C1O)C2 (stereo unspecified) | inactive: 4.07% | – |
| O=c1cc(-c2ccc(O)c(O)c2)oc2cc(O)cc(O)c12 | – | active: 11.2 µM |
| C=CCN1C[C@H](C)N([C@@H](c2ccccc2)c2ccc(C(=O)N(CC)CC)cc2)C[C@H]1C | – | inconclusive: 15.8 µM [inhibitor, partial curve, poor fit] |
| Nc1ccccc1C(=O)OCCc1ccccc1 | – | inconclusive: 12.6 µM [inhibitor, partial curve] |
| CCOP1(=S)Oc2cc3c(cc2C(C(=O)OC)(C(F)(F)F)O1)OCO3 (stereo unspecified) | – | inconclusive: 28.2 µM [inhibitor, single point] |
| CC(=O)OC1C2CCC3C1(CC(O)[C@@]1(O)[C@@H](CC(O)C1(C)C)[C@]3(C)O)C[C@@]2(C)O (stereo partly specified) | inactive: -0.742% | – |

| SMILES | activity change, negative = inhibition | Potency |
| --- | --- | --- |
| COc1ccc(/C=C2\C(=O)NC(=O)N(CCC3=CCCCC3)C2=O)c(OC)c1 | – | active: 20 µM |
| CCOC(=O)c1c(N)n(Cc2ccc(OC)cc2)c2nc3ccccc3nc12 | – | inconclusive: 11.2 µM [inhibitor, partial curve] |
| O=C(OCC1O[C@@H](OC(=O)c2cc(O)c(O)c(O)c2)[C@@H](OC(=O)c2cc(O)c(O)c(O)c2)[C@@H](OC(=O)c2cc(O)c(O)c(O)c2)[C@@H]1OC(=O)c1cc(O)c(O)c(O)c1)c1cc(O)c(O)c(O)c1 (stereo partly specified) | – | active: 10 µM |
| NCC(N)C(=O)c1ccccc1 (stereo unspecified) | inactive: -16.7% | – |
| CCCc1cc2c(n1Cc1cccc(Cl)c1)C(C)C1CN(C(=O)c3ccccc3)C(C)(C(=O)OC)C21 (stereo unspecified) | – | inconclusive: 31.6 µM [inhibitor, partial curve] |
| CC(C)CC(NP(=O)(O)O[C@@H]1O[C@@H](C)[C@H](O)[C@@H](O)[C@H]1O)C(=O)NC(Cc1c[nH]c2ccccc12)C(=O)O (stereo partly specified) | inactive: 3.45% | – |
| c1ccc2sc(SNC3CCCCC3)nc2c1 | – | inconclusive: 35.5 µM [inhibitor, single point] |
| NC(N)=NCCN=C(N)N | inactive: -4% | – |
| CCCCC/C=C\C/C=C\C/C=C\C/C=C\CCCC(=O)NCCc1ccc(O)c(O)c1 | – | inconclusive: 39.8 µM [inhibitor, single point] |
| CCOc1cc(-c2nc3c(C)cccn3c2NCC2CCCO2)ccc1O (stereo unspecified) | – | inconclusive: 28.2 µM [inhibitor, partial curve] |
| O=C1C(Cl)=C(Cl)C(=O)C(Cl)=C1Cl | – | active: 2.82 µM and active: 891 nM |
| O=c1[nH]c(=O)n(CCc2ccccc2)c(O)c1C=NCCN1CCNCC1 | – | inconclusive: 31.6 µM [inhibitor, single point] |
| CC1CCN(S(=O)(=O)c2ccc(NN=C(C#N)C#N)cc2)CC1 | inactive: -22.3% | – |
| CCCCCC[C@H]1C(=O)O[C@H](C)[C@H](NC(=O)c2cccc(NC=O)c2O)C(=O)O[C@@H](C)[C@H]1OC(=O)CC(C)C | – | inconclusive: 14.1 µM [inhibitor, partial curve] |
| NCC[Se][Se]CCN | – | active: 2.82 µM |
| Cc1ccc(-c2n[nH]c(=S)n2-c2ccccc2)cc1 | – | inconclusive: 25.1 µM [inhibitor, partial curve] |
| Cn1c2ccccc2c2cnn(CC(=O)N3CCC4(CC3)OCCO4)c(=O)c21 | – | inconclusive: 28.2 µM [inhibitor, partial curve] |
| CCNC[C@H](O)c1cccc(O)c1 | inactive: -6.69% | – |
| CCOP(=S)(OCC)SCCSCC | inactive: -11.1% | – |
| O=C(Nc1ccccc1)N1CC2(CCN(C(=O)Oc3ccccc3)CC2)C1 | inactive: 1.48% | – |
| COc1ccccc1-c1[se]c2ccccc2c1I | – | inconclusive: 35.5 µM [inhibitor, partial curve] |
| Cc1nccc2c1[nH]c1ccccc12 | – | inconclusive: 28.2 µM [inhibitor, partial curve] [middle of 5 runs] |

| SMILES | activity change, negative = inhibition | Potency |
| --- | --- | --- |
| CN1C[C@H](CO)C=C2c3cccc4[nH]cc(c34)C[C@@H]21 | – | inconclusive: 12.6 µM [inhibitor, partial curve] |
| Cc1ccc(C[N+](C)(C)C)o1 | inactive: 2.87% and inactive: 2.66% | – |
| CCN(CC)C(=O)c1ccc(NC(=O)COc2ccc([N+](=O)[O-])cc2Cl)cc1 | – | active: 0.501 µM |
| CN(C)c1ccc(P(=O)(Nc2ccc([N+](=O)[O-])cc2)N2CCOCC2)c(NC(=O)c2cccs2)c1 (stereo unspecified) | – | inconclusive: 39.8 µM [inhibitor, single point] |
| COc1cc2c3cc1Oc1c(OC)c(OC)cc4c1C(Cc1cccc(c1)Oc1ccc(c(O)c1)CC3N(C)CC2)N(C)CC4 (stereo unspecified) | – | inconclusive: 28.2 µM [inhibitor, partial curve] |
| C[C@H](CN(C)C)C(C#N)(c1ccccc1)c1ccccc1 | inactive: -5.65% | – |
| O=C(c1cc2ccccn2n1)N1CCC2(CC1)OCCO2 | inactive: -11.4% | – |
| O=c1c2cc(N3CCOCC3)ccc2[nH]c(=S)n1Cc1ccc(Cl)cc1 | – | inconclusive: 17.8 µM [inhibitor, partial curve] |
| CCOC(=O)c1c(-n2c(C)cc(/C=C3\C(=O)NC(=O)N(C)C3=O)c2C)sc2c1CCCC2 | – | inconclusive: 35.5 µM [inhibitor, single point] |
| CCC(=O)c1c(O)n(C2CCCCCC2)c(=O)[nH]c1=O | inactive: -7.67% | – |
| C=CCN1C(=O)/C(=C/c2cc(C)n(-c3ccccn3)c2C)C(=O)NC1=S | – | active: 12.6 µM |
| CCN(CC)c1ncnc2c1ncn2[C@@H]1O[C@H](COP(=O)(O)OP(=O)(O)C(Br)(Br)P(=O)(O)O)[C@@H](O)[C@H]1O | inactive: -5.3% | – |
| CNc1ccc2oc(C[C@H]3O[C@@]4(CC[C@H]3C)O[C@H]([C@H](C)C(=O)c3ccc[nH]3)[C@H](C)C[C@H]4C)nc2c1C(=O)O | – | inconclusive: 28.2 µM [inhibitor, partial curve] |
| COC(=O)C(O)C(O)(CCC(C)C)C(=O)OC1C(OC)=CC23CCCN2CCc2cc4c(cc2C13)OCO4 (stereo unspecified) | inactive: 0.223% | – |
| CCN1CC2(COC(=O)c3ccccc3N)CCC(OC)C34C5CC6C(OC)CC(O)(C5C6OC)C(O)(C(OC)C23)C14 (stereo unspecified) | – | inconclusive: 31.6 µM [inhibitor, partial curve] |
| COc1ccc2c(c[n+](C)c3c4cc5c(cc4ccc23)OCO5)c1OC | – | inconclusive: 20 µM [inhibitor, partial curve] and inconclusive: 31.6 µM [inhibitor, partial curve] |
| Cc1cc(C=C2C(=O)N(C)C(=S)N(C)C2=O)c(C)n1-c1cccnc1 | – | active: 10 µM |
| O=S(=O)(O)c1cc(O)ccc1O | – | inconclusive: 14.1 µM [inhibitor, single point] |
| COc1cc(N2CCOCC2)ccc1/C=C1\C(=O)NC(=O)N(C2CCCCC2)C1=O | – | inconclusive: 31.6 µM [inhibitor, single point] |
| COC(=O)c1ccc(COc2cc(C)cc3oc(=O)c4c(c23)CCCC4)o1 | – | inconclusive: 12.6 µM [inhibitor, partial curve] |
| O=C1NC(=O)N(c2ccccc2F)C(=O)/C1=C/c1ccc(Sc2nc3ccccc3[nH]2)o1 | – | active: 3.55 µM |
| Cc1ccc(-n2c(O)c(/C=N/N3CCCCC3c3cccnc3)c(=O)[nH]c2=S)cc1 (stereo unspecified) | – | inconclusive: 22.4 µM [inhibitor, partial curve] |
